Tests used:
[1] = target: VEGF-A (UniProt P15692); test: cell-based or functional assay
[2] = target: T1, VEGF-A (UniProt P15692-4 27-191, limits assumed); test: cell-based or functional assay
T1 sequence (looked up): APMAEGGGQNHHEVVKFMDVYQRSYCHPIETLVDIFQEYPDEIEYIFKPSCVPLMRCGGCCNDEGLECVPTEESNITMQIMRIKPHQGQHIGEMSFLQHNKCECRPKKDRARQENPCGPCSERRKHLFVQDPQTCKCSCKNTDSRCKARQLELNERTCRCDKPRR

B1: VEGF-Grab1 (Fc fusion)
chain: EFGRPFVEMYSEIPEIIHMTEGRELVIPCRVTSPNITVTLKKFPLDTLIPDGKRIIWDSRKGFIISNATYKEIGLLTCEATVNGHLYKTNYLTHRQTNTIIDVQISTPSPVTLLRGHTLVLNCTATTPLNTRVQMTWSYPDEKNKRASVRRRIDQSNSHANIFYSVLTIDKMQNKDKGLYTCRVRSGPSFKSVNTSVHIYDKALE[gap - human IgG1 Fc]
IC50 (µg/ml), luciferase reporter, KDR/NFAT-RE HEK293 cells [1]: 0.0398 µg/mL | VEGF-A inhibition (IC50, µg/ml) [2]: 0.0398 µg/mL

B2: C91 (Fc fusion)
chain: EFGRPFVEMYSEIPEIIHMTEGRELVIPCRVTSPNITVTLKKFPLDTLIPDGKRIIWDSRKGFIISNATYKEIGLLTCEATVNGHLYKTNYLTHRQTNTIIDVQISTPSPVTLLRGHTLVLNCTATTPLNTRVQMTWSYPDEKNKNASVRRRIDQSNSHANIFYSVLTIDKMQNKDKGLYTCRVRSGPSFKSVNTSVHIYDE[gap - human IgG1 Fc]
VEGF-A inhibition (IC50, µg/ml) [2]: 0.0389 µg/mL

Reference: patent US20260034244A1 (PANOLOS BIOSCIENCE, published 2026)
